Source: publication PMC3677938
Results are given in words; binding and its absence hold for the method and conditions named. Binding seen in cells or lysates may run through a third protein. Some results given as binding are weak or reduced against the parent protein; the word gives no strength. For part of these data: Sequences can lack the tags named with a protein.

The chains behind the UniProt entries cited, without tags or fusion partners.
UniProt P42568: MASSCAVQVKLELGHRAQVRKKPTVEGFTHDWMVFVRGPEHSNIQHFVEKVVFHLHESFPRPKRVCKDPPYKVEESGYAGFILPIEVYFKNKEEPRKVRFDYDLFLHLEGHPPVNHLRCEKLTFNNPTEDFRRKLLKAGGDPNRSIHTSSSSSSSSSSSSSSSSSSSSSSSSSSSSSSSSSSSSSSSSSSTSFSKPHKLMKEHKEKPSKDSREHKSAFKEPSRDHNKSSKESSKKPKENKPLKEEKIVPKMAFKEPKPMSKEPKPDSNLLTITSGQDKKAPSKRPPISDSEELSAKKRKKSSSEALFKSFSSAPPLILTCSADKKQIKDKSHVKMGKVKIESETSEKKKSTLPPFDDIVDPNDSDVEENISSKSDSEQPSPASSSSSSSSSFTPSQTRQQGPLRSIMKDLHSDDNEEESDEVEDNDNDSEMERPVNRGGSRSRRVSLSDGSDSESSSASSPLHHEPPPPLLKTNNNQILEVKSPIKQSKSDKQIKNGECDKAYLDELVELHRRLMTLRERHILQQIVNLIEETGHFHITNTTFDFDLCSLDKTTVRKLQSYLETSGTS
UniProt Q9NQU5: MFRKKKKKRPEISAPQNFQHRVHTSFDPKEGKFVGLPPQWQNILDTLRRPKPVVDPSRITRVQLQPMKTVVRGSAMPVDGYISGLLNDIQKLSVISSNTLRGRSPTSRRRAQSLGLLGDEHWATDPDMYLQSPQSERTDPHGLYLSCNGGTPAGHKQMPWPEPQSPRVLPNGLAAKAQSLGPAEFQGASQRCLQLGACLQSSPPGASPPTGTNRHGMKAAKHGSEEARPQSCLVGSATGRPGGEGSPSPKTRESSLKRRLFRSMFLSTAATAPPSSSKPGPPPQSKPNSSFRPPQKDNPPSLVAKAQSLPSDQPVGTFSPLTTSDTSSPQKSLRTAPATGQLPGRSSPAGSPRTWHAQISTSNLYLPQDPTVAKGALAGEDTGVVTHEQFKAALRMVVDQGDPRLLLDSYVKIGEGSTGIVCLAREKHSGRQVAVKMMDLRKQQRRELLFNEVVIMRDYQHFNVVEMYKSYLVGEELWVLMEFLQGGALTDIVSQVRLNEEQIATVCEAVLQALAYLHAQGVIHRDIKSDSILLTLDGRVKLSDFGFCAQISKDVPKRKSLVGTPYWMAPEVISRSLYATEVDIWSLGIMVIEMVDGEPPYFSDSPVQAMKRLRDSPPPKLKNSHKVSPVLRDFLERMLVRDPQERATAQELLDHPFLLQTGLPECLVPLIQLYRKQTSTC
UniProt A2AM29: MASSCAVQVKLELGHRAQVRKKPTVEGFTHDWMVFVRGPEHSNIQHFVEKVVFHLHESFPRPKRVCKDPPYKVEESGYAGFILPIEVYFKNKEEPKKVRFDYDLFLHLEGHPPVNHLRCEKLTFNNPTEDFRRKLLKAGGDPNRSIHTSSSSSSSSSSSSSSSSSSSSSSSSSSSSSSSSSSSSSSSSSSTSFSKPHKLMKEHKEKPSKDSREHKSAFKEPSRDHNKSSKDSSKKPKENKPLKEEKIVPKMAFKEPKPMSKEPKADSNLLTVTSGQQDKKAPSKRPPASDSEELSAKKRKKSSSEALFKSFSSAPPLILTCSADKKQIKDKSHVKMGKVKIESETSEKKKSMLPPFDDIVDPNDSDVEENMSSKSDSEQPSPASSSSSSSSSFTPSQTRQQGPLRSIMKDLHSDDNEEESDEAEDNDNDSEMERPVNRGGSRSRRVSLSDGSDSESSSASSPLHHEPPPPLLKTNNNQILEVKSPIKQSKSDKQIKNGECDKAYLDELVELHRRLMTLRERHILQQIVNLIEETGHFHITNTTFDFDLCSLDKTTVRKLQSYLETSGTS

T1: GST-DBD (92–173) (human) (UniProt P10276)
T1 sequence: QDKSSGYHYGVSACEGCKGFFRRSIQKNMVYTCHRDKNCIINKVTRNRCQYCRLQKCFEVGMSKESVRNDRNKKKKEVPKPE

T2: GST-LBD (186–462) (human) (UniProt P10276)
T2 sequence: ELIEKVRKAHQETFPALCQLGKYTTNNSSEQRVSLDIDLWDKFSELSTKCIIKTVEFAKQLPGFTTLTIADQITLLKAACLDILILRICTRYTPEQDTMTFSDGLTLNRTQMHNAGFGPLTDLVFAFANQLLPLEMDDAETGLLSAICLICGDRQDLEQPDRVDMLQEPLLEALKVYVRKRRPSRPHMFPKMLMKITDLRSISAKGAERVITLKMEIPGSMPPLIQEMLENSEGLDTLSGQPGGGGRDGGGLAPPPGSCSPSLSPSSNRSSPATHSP

T3: GST-AF-1 (1–92) (human) (UniProt P10276)
T3 sequence: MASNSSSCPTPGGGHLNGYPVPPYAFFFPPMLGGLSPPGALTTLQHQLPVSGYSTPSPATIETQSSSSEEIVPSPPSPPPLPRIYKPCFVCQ

T4: RARα (endogenous, P19 cells) (mouse (endogenous in P19)) (UniProt P11416)
T4 sequence: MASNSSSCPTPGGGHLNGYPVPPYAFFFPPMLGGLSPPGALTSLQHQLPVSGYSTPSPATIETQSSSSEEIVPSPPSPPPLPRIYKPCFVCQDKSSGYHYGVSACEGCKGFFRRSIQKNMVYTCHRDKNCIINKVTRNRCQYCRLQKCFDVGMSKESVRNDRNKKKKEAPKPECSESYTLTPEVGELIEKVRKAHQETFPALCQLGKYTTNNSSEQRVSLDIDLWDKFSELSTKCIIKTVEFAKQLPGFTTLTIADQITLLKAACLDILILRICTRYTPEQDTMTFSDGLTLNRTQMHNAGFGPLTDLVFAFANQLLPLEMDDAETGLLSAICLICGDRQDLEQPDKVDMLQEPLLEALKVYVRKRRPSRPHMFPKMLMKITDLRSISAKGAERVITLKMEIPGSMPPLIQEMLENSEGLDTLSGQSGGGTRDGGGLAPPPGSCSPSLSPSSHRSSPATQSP

B1: 35S-labeled NAP1L2 (protein, UniProt Q9ULW6 1-460)
chain: MAESENRKELSESSQEEAGNQIMVEGLGEHLERGEDAAAGLGDDGKCGEEAAAGLGEEGENGEDTAAGSGEDGKKGGDTDEDSEADRPKGLIGYVLDTDFVESLPVKVKYRVLALKKLQTRAANLESKFLREFHDIERKFAEMYQPLLEKRRQIINAIYEPTEEECEYKSDSEDCDDEEMCHEEMYGNEEGMVHEYVDEDDGYEDYYYDYAVEEEEEEEEEDDIEATGEENKEEEDPKGIPDFWLTVLKNVDTLTPLIKKYDEPILKLLTDIKVKLSDPGEPLSFTLEFHFKPNEYFKNELLTKTYVLKSKLAYYDPHPYRGTAIEYSTGCEIDWNEGKNVTLKTIKKKQKHRIWGTIRTVTEDFPKDSFFNFFSPHGITSNGRDGNDDFLLGHNLRTYIIPRSVLFFSGDALESQQEGVVREVNDAIYDKIIYDNWMAAIEEVKACCKNLEALVEDIDR
modifications: 35S-methionine label

Columns and labels:
GST-DBD (92–173) (human) = biological target: T1, GST-DBD (92–173) (human); test: pull-down; GST-RARα fusion proteins on beads (2 µg) incubated at 4°C for 4 hours, in the presence or absence of atRA, with 35S-methionine-labelled in vitro translated proteins; 20 mM Tris-HCl pH 7.9, 100 mM KCl, 0.1% NP-40; washes with 150 mM KCl and 0.3% NP-40; autoradiography; only the target purified
[1] = biological target: T2, GST-LBD (186–462) (human); test: as above
GST-AF-1 (1–92) (human) = biological target: T3, GST-AF-1 (1–92) (human); test: as above
[2] = biological target: T4, RARα (endogenous, P19 cells) (mouse (endogenous in P19)); test: co-IP; endogenous proteins from P19 whole cell extracts; immunoprecipitation with anti-RAR (sc551), anti-Brd4 (Santa Cruz H250) or a mix of anti-AF9 antibodies (Bethyl); western blot with anti-Brd4 or anti-AF9

| Molecule | binding (GST-DBD (92–173) (human)) | binding [1] | binding (GST-AF-1 (1–92) (human)) | binding [2] |
| --- | --- | --- | --- | --- |
| 35S-labeled AF9 (from UniProt P42568 1-568) | binds | no binding | binds |  |
| 35S-labeled PAK6 (from UniProt Q9NQU5 1-681) | binds |  | no binding |  |
| AF9 (endogenous, P19 cells) (from UniProt A2AM29 1-569) |  |  |  | binds |
| B1 | binds | binds | no binding |  |
